For 34 variants, self-cleavage results are on record in the RNAGym collection of RNA variant scans (doi:10.1093/nar/gkz1192).

The chains are these.
B1: CPEB3 Ribozyme (parent)
chain: UAACAGGGGGCCACAGCAGAAGCGUUCACGUCGCAGCCCCUGUCAGAUUCUGGUGAAUCUGCGAAUUCUGCUGUAUAUCUC

The source gives no read counts; variants with many changes may rest on few reads.

The series covers variants of B1. Nature of the series: self-cleavage, relative activity (ratio to wild type); higher = more cleavage; in vitro, sequencing. The essentials: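 Barcoded CPEB3 ribozyme mutants, produced by rounds of error-prone PCR, self-cleaved while being transcribed with T7 RNA polymerase for 5 hours at 37°C and during a subsequent 15 min DNase I step before EDTA was added. Sequencing of template-switched cDNA on Illumina gave cleaved and total reads, and DNA sequencing assigned barcodes to variants. Each variant's relative activity is its cleaved/total read fraction divided by the unmutated ribozyme's fraction, averaged across three batches. A variant needed a minimum of 5 reads.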
As to UAACAGGGGGCCACAGCGGAAGCGUUCACGUCGCGGCCCCUGUCAGAUUCUGGUGAAUCUGCGAAUUACGCUGUAUAUCUC [A18G A35G C68A U69C], the self-cleavage stood at 0.94.

On to UAACAGGGGGCCACAGCGGAAGCGUUCACGUCGCGGCCCCUGUCAGAUUCUGGUGAAUAUGCGAAUCCUGCCGUAUAUCUC [A18G A35G C59A U67C U72C], for which the self-cleavage amounted to 0.35.

For the variant UAACAGGGGGCCACAGCGGAGGCGUUCACGUCGCAGCUCCUGUCAGAUUCUGGUGGAUCUGCGAAUUCUGCUGUAUAUCUC [A18G A21G C38U A56G], the self-cleavage is 0.18.

Turning to UAACAGGGGGCCACAGCGGAAGCGUUCCCGCUGCAGCCCCUGUCGGAUUCUGGUGAAUCUGCGAUUUCUGCUGUAUAUCUC [A18G A28C U31C C32U A45G A65U], the self-cleavage turned out to be 0.04.

Turning to UAACAGGGGGCCACAGCGGAAGCGUUCACGUCGCGGCCCCUGUCAGAUUCUGGUGAAUCUGCGAACUCUGCUGUAUAUCUC [A18G A35G U66C], the self-cleavage is 0.66.

As for UAACAGGGGGCCACAGCGGAGGCGUUCACGUCGCAGCCCCUGUCAGAUUCUGGUGGAUCUGCGAAUUCUGCUGCAUAUCUC [A18G A21G A56G U74C], the self-cleavage turned out to be 0.23.

On to UAACAGGGGGCCACAGCGGAUGCGUUCACGUCGCAGCCCCUGUCAGAUUCUGGUGGAUCUGCGUAUUUUGCUGUAUAUCUC [A18G A21U A56G A64U C68U], for which the self-cleavage was determined as 0.05.

Consider UAACAGGGGGCCACAGCGGAAGCGUUCACGUCGCGGCCCCUGUCAGAUUCUGGUGAAUCUGCGUAUUCUGCUGUAUAUCUC [A18G A35G A64U], for which the self-cleavage was 0.37.

On to UAACAGGGGGCCACAGCGGAAGCGUUCGCGUCGCAGCCCCUGUCAGAUUCUGGUGAAUCUGCGAAUUAUGCUGUAUAUCUC [A18G A28G C68A], for which the self-cleavage stood at 0.05.

Take UAACAGGGGGCCACAGCGGAAGCGUUCGCGUCGCAGCCCCAGUCAGAUUCUGGUGAAUCUGCGAAUUCUGCUGUAUGACUC [A18G A28G U41A A77G U78A]: the self-cleavage amounted to 0.17.

For the variant UAACAGGGGGCCACAGCGGAAGCGUUCACGUCGCGGCCCCUGCCAGAUUCUGGUGAGUCUGCGAAUUCUGCCGUAUAUCUC [A18G A35G U43C A57G U72C], the self-cleavage worked out at 0.64.

As for UAACAGGGGGCCACAGCGGAAGCGUUCUUGUCGCAGCCCCUGCCAGAUCCUGGUGUAUCUGCGAAUUCUGCUGUAUAUCCC [A18G A28U C29U U43C U49C A56U U80C], the self-cleavage turned out to be 0.07.

UAACAGGGGGCCACAGCGGAGGCGUUCACAUCGCAGCCCCUAUCAGAUUCUGGUGAAUCUGCGAACUCUGCUGUAUAUCAC [A18G A21G G30A G42A U66C U80A]: the self-cleavage was determined as 0.12.

As to UAACAGGGGGCCACAGCGGAGGCGUUCACGUCGCAGCCCCUGGCAGAUUCUGGUGAAUCUGCGAAUUCUGCUGUAUAUCUC [A18G A21G U43G], the self-cleavage was 0.38.

UAACAGGGGGCCACAGCGGAAGCGUUCACGUCGCGGCCCCUGUCAGAUUCUGGUGAAUCUGCGAAUUUUGCUGUAUAUCAC [A18G A35G C68U U80A]: the self-cleavage was 1.16.

Take UAACAGGGGGCCACAGCGGAGGCGUUCACGUCGCAGCCCCUGUCAGAUCCUGGUGAAUCUGCGAAUUCUGCUGUAUAUCUC [A18G A21G U49C]: the self-cleavage was found to be 0.22.

Regarding UAACAGGGGGCCACAGCGGAAGCGUUCACGUCGCGGCCCCUGUCAGAAUCUGGUGAAUCUGCGAAUUCUGCUGUAUAUCUC [A18G A35G U48A], the self-cleavage came out at 0.23.

In the case of UAACAGGGGGCCACAGCGGAAGCGUUCACGUCGCGGCCCCUGUCAGAACCUGGUGGAGCUGCGAAUUCUGCUGUAUAUCUC [A18G A35G U48A U49C A56G U58G], the self-cleavage stood at 0.31.

Take UAACAGGGGGCCACAGCGGAAGCGUUCGCGUCGCAGCCCCUGUCAGAUUCUGGUGAAUCUGCGAAUUCUGCGGUAUAUCUC [A18G A28G U72G]: the self-cleavage came out at 0.2.

For UAACAGGGGGCCACAGCGGAAGCGUUCCUGUCGCAGCCCCUGUCAGAUUCUGGUGAUUCUGCGAAUUCUGCUGUAUAUCUC [A18G A28C C29U A57U], the self-cleavage was 0.27.

As for UAACAGGGGGCCACAGCGGAAGCGUUCGCGACGCAGCCCCUGUCAGAUUCUGGUGAAUCUGCGAAUUCUGCUGUAUAUCUC [A18G A28G U31A], the self-cleavage was determined as 0.06.

For UAACAGGGGGCCACAGCGGAAGCGUUCGCGUCGCAGCCCCUAUCAGGCUCUGGUGAGUCUGCGAAUUCUGCUGUAAAUCUC [A18G A28G G42A A47G U48C A57G U76A], the self-cleavage amounted to 0.

Take UAACAGGGGGCCACAGCGGAAGCGUUCCCGUCGCAGCUCCUGCCAGAUUCUGGUGAAUCUGCGGAUUCUGCUGUAUAUCUC [A18G A28C C38U U43C A64G]: the self-cleavage is 0.06.

In the case of UAACAGGGGGCCACAGCGGAAGCGUUCGCGUCGCGGCCCCUGUCAGAUUCUGGUGAAUCUGCGAAUUCUGCUGUACAUCUC [A18G A28G A35G U76C], the self-cleavage stood at 0.6.

Turning to UAACAGGGGGCCACAGCGGAAGCGUUCGCGUCGCAGCCCCUGUCUGACUCUGGUGAAUCUGCGAAUUCUGCUGUAUAUCUC [A18G A28G A45U U48C], the self-cleavage was found to be 0.17.

As for UAACAGGGGGCCACAGCGGAAGCGUUCCCGUCGCAGCCCCUGUCAGAUUCUGGUGAAUCUGCGAAUUCUGCUGUAUACCUC [A18G A28C U78C], the self-cleavage is 0.24.

As for UAACAGGGGGCCACAGCGGAAGCGUUCGCGUCCCAGCCCCUGUCAGAUUCUGGUGAAUCUGCGAAUUCUGCAGAAUAUCUC [A18G A28G G33C U72A U74A], the self-cleavage stood at 0.18.

Regarding UAACAGGGGGCCACAGCGGAGGCGUUCACGUCGCAGCCCCUGUCAGAUUCAGGUGAAUCUGCGAAUUCUGCUGUAUACCUC [A18G A21G U51A U78C], the self-cleavage stood at 0.64.

Turning to UAACAGGGGGCCACAGCGGAAGCGUUCACGUCGCGGCCCCUGUCAGAUUCUGGUGAAUCUGCGAAUUCUGCUGUGUAUUUC [A18G A35G A75G C79U], the self-cleavage is 1.5.

With UAACAGGGGGCCACAGCGGAAGCGUUCACGUCGCGGCCCCUGUCCGAUUCUGGUGAAUCUGCGAAUUCUGCUGUAUAUCUC [A18G A35G A45C], the self-cleavage amounted to 0.37.

As for UAACAGGGGGCCACAGCGGAGGCGCUCACGUCGCGGCCCCUGUCAGAUUCUGGUGAAUCUGCGAAUCCUGCCGUAUAUCUC [A18G A21G U25C A35G U67C U72C], the self-cleavage worked out at 0.09.

As for UAACAGGGGGCCACAGCGGAUGCGUUCACGCCGCAGCCCCUGUCAGAUCCUGGUGAAUCUGCGAAUUCUGCUGUAUAUCUC [A18G A21U U31C U49C], the self-cleavage came out at 0.07.

For UAACAGGGGGCCACAGCGGAAGCGUUCGCGUCGCAGCCCCUGUCAGAUUCUGGAGAAUCUGAGAAUUCUGCUGUACAUCUC [A18G A28G U54A C62A U76C], the self-cleavage is 0.12.

Turning to UAACAGGGGGCCACAGCGGAAGCGUUCGCGUCGCACCCCCUGUCAGACUCUGGUGAGUCUGCGACUUCUGCUGUAUAUCUC [A18G A28G G36C U48C A57G A65C], the self-cleavage amounted to 0.09.
